Source: ChEMBL document CHEMBL1201862, “PubChem BioAssay data set” (2004)

Tested on: NCI-H322M
Assay: NCI anticancer screen, dose series, 48 h

Row | SMILES | GI50
1 | NCCSCCc1ccccc1 | inactive: > 100 µM
2 | [O-][n+]1c(CN2CCCCC2)nc2cccc3c2c1-c1ccccc1-3 | inactive: 20.7 µM
3 | COc1cccc2nc3cc(C)c(C)cc3nc12 | inactive: > 100 µM
4 | C/C(=N/S(=O)(=O)c1ccc(Cl)c(Cl)c1)OCC(C)(C)C | inactive: > 100 µM
5 | CC(=O)C(C(c1ccccc1)N1CCOCC1)N1CCOCC1 (configuration not stated) | inactive: > 100 µM
6 | COc1ccc(/C=C2\C=Cc3ccccc32)cc1OC | inactive: > 100 µM
7 | COc1ccc(NC(C)=O)cc1C1CCC(=O)N1 (configuration not stated) | inactive: > 100 µM
8 | Cc1cc2c(cc1Cl)SC(NNC(=O)c1ccccc1)=NS2(=O)=O | inactive: > 10 µM
9 | CC1(C)N=c2c(ncn2N)=C(C(N)=O)N1 | inactive: > 100 µM
10 | NS(=O)(=O)c1ccc(NNC(=O)c2cccc3c(=O)c4ccccc4[nH]c23)cc1 | inactive: 48.1 µM
11 | O=C(CCN1CCN(c2cccc(Cl)c2)CC1)N1CCc2c([nH]c3ccccc23)C1c1cccnc1 (configuration not stated) | inactive: 5.57 µM
12 | CO/N=C1/c2sccc2[C@H](NC(=O)CNC(=O)OC(C)(C)C)[C@@H]1O | inactive: > 100 µM
13 | O=C(Cc1ccccc1)NNc1nc(NNC(=O)c2ccncc2)nc(Nc2ccc([N+](=O)[O-])cc2)n1 | inactive: > 10 µM
14 | O=C(CCC1CCCCN1)Nc1ccc2c(c1)C(=O)c1ccc(NC(=O)CCN3CCCCC3)cc1C2=O (configuration not stated) | inactive: 10.1 µM
15 | COC(=O)c1c(O)ccc2c1c1c(n2C)C(=O)c2ccccc2C1=O | inactive: > 100 µM
16 | O=C1C(=O)N(c2ccc(Cl)c(Cl)c2)C(=O)C(=O)C1c1nc2ccccc2o1 | inactive: > 100 µM
17 | CC(=O)OCC1OC(O[C@@H]2C[C@H]3C(C)(C)[C@H](OC(C)=O)CC[C@]3(C)[C@H]3CC[C@@]45C[C@H](O)C[C@H](C)[C@@H]4CC=C5[C@@]32C)C(O)C(O)C1O (some centres not stated) | inactive: 8.24 µM
18 | CCC/C(Cl)=N\OC(=O)Nc1ccc(F)c([N+](=O)[O-])c1 | inactive: > 100 µM
19 | COc1cc2c(c(OC)c1OC)-c1ccc(OC)c(=O)cc1C(NC(=O)c1ccc(N=[N+]=[N-])cc1)CC2 (configuration not stated) | active: 0.0531 µM
20 | CCOC(=O)[C@@]12C[C@](/C=C/OC)(O[Si](C)(C)C)[C@@]13c1cc(OC)c(OC)cc1CCN3C(=O)C2=O | inactive: > 100 µM
21 | CC(=O)O[C@H]1CC[C@@]2(C)C(=CC[C@@H]3[C@@H]2CC[C@](C)(c2nnc(C)o2)[C@H]3CC#N)C1 | inactive: > 100 µM
22 | CC(=O)O/N=C/c1ncccc1CO | inactive: > 100 µM
23 | COc1ccccc1Cn1c2c(c3cc(O)ccc31)C(=O)c1ccccc1C2=O | inactive: > 100 µM
24 | Cc1ccc(S(=O)(=O)c2ccc(NC(=O)SCCC(=O)O)cc2)cc1 | inactive: > 100 µM

Row | SMILES | GI50
25 | CN(N)c1cc(=O)[nH]c(=O)[nH]1 | inactive: > 100 µM
26 | N#CC(c1ccccc1)N(CCCCCCN(C(=O)c1ccccc1)C(C#N)c1ccccc1)C(=O)c1ccccc1 (configuration not stated) | inactive: 52.7 µM
27 | CN(C)c1n/c(=N/c2ccc3ccccc3c2)ss1 | inactive: 19.4 µM
28 | CCNC(=O)NNc1ncnc2c1c(-c1ccc(Cl)cc1)cn2-c1ccc(C)cc1 | inactive: 25.9 µM
29 | O=S(=O)(C/C(=N\O)c1ccccc1)c1ccccc1 | inactive: > 100 µM
30 | CCC(CO)Nc1nc2c(c(=O)n(C)c(=O)n2C)n1CCO (configuration not stated) | inactive: > 100 µM
31 | C=C(Cl)C(C)(Cl)CCC(Cl)C(C)C (configuration not stated) | inactive: > 100 µM
32 | COc1ccc(-c2nc(-c3cnccn3)n(C3OC(CO)C(O)C3O)n2)cc1 (configuration not stated) | inactive: > 10 µM
33 | COC(=O)C(Cc1ccccc1)NC(=O)Cn1ccnc1[N+](=O)[O-] (configuration not stated) | inactive: > 100 µM
34 | COc1cccc(NC(=O)CC(=O)N2N=C(C)C(/N=N/c3ccc(C(=O)O)cc3)C2=O)c1 (configuration not stated) | inactive: > 100 µM
35 | BrC1=CC=C2NC=CC3=CC=NC1C32 (configuration not stated) | inactive: 24.8 µM
36 | C[n+]1c2ccccc2n2c3ccccc3c(NCCc3ccccn3)c(C#N)c21 | inactive: 2.21 µM
37 | O=C1CS(=O)(=O)C(c2cccc(Oc3ccccc3)c2)N1c1cccc(Cl)c1 (configuration not stated) | inactive: 44.7 µM
38 | COc1c(-c2nc3ccc(N4CCN(C)CC4)nc3[nH]2)cc(OC)c2[nH]c(COC(C)=O)nc12 | inactive: 23.6 µM
39 | Cc1c(C#N)c(N)n(C2OC(CO)C(O)C(O)C2O)c(=S)c1C#N (configuration not stated) | inactive: > 100 µM
40 | Cc1ccc(O)c(-c2csc(NCN3CCN(CNc4nc(-c5cc(C)ccc5O)cs4)CC3)n2)c1 | inactive: > 100 µM
41 | CN(C(=N)c1ccccc1)c1ccccc1 | inactive: > 100 µM
42 | N#CC(NC12CC3CC(CC(C3)C1)C2)c1ccc2c(c1)OCO2 (configuration not stated) | inactive: > 100 µM
43 | S=c1[nH]nc(COc2ccc3c(c2)CCCC3)n1/N=C/c1ccc(Cl)cc1 | inactive: 20.4 µM
44 | CCc1cc(CCC(=O)Nc2ccccc2[N+](=O)[O-])nc(S)n1 | inactive: > 100 µM
45 | CCOC(=O)CNC(=O)NC12CC3CC(CC(C3)C1)C2 | inactive: 275 µM
46 | CC1(O)CC23CC1CCC2(C)C12CCCC(C)(C(=O)O1)C2CC3O (configuration not stated) | inactive: > 100 µM
47 | CC(=O)C1=C(C)NC2C=CC=CN12 (configuration not stated) | inactive: > 100 µM

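48-hour exposure; five concentrations; linearly interpolated endpoints. GI50: concentration for 50% inhibition of growth.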 Active and inactive are the calls of the source. Cut-off read from the data, not from the text of the source: active = GI50 up to about 1.1 µM and inactive = higher.
